# Test results reported in the supplement of paper PMC12217912.
# This is one part of the list. Sequences were assembled here from the parent chain. Values near 0.05 are background.
# B1: TEV protease; numbered along this chain (parent)
# chain: MGESLFKGPRDYNPISSSICHLTNESDGHTTSLYGIGFGPFIITNKHLFRRNNGTLVVQSLHGVFKVKDTTTLQQHLVDGRDMIIIRMPKDFPPFPQKLKFREPQREERICLVTTNFQTKSMSSMVSDTSCTFPSGDGIFWKHWIQTKDGQCGSPLVSTRDGFIVGIHSASNFTNTNNYFTSVPKNFMELLTNQEAQQWVSGWRLNADSVLWGGHKVFMVKPEEPFQPVKEATQL
# Variants of: B1
# Assay: raw area under fraction-flipped curve 0-4 h after induction (AUC4h, not background-subtracted), DNA-recorder readout of cleavage of the substrate (dimensionless); higher = more cleavage of the substrate by the protease variant
# Conditions: temperature: 34 °C; time window: 0-4 h after rhamnose induction
# Procedure: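 In vivo DNA recorder in E. coli TOP10(DE3) ΔrhaA at 34 °C. Each TEVp single-site mutant (parent TEVp 0) is paired with a single-site variant of the 7-mer TEVs (canonical ENLYFQ|S). The substrate sits between flexible linkers in a Bxb1-sfGFP-TEVs-SsrA fusion, so cleavage stabilises Bxb1 and speeds flipping of a recombination array, read by NGS. The value is the raw area under the fraction-flipped curve over 0-4 h after rhamnose induction (AUC4h), with ≥20 reads per time point. It is not background-subtracted; inactive controls average about 0.047.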
# 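Also: Bxb1 expression induced with 0.2% (w/v) L-rhamnose at OD600 near 0.5, cultures sampled hourly, flipped fraction per protease–substrate barcode pair counted by paired-end Illumina sequencing.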
Variant,area with substrate ENCYFQS,area with substrate ENDYFQS,area with substrate ENEYFQS,area with substrate ENFYFQS,area with substrate ENGYFQS,area with substrate ENNYFQS,area with substrate ENQYFQS,area with substrate ENRYFQS,area with substrate ENSYFQS,area with substrate ENTYFQS,area with substrate ENVYFQS,area with substrate ENYYFQS,area with substrate ENHYFQS,area with substrate ENPYFQS,area with substrate ENWYFQS,area with substrate ENMYFQS,area with substrate ENIYFQS,area with substrate ENKYFQS
MGESLFKGPRDYNPISSSICHLTNESDGHTTSLYGIGFGPFIITNKHLFRRNNGTLVVQSLHGVFKVKDTTTLQQHLVDGRDMIIIRMPKDFPPFPQKLKFREPQREERICLVTTNFQTESMSSMVSDTSCTFPSGDGIFWKHWIQTKDGQCGSPLVSTRDGFIVGIHSASNFTNTNNYFTSVPKNFMELLTNQEAQQWVSGWRLNADSVLWGGHKVFMVKPEEPFQPVKEATQL [K120E],0.0621,0.0611,0.0625,0.0642,0.0608,0.0516,0.0616,0.0464,0.0544,0.0398,0.0632,0.0545,,,,,,
MGESLFKGPRDYNPISSSICHLTNESDGHTTSLYGIGFGPFIITNKHLFRRNNGTLVVQSLHGVFKVKDTTTLQQHLVDGRDMIIIRMPKDFPPFPQKLKFREPQREERICLVTTNFQTNSMSSMVSDTSCTFPSGDGIFWKHWIQTKDGQCGSPLVSTRDGFIVGIHSASNFTNTNNYFTSVPKNFMELLTNQEAQQWVSGWRLNADSVLWGGHKVFMVKPEEPFQPVKEATQL [K120N],0.0655,0.0086,,,,0.059,,,0.0666,,,0.0827,0.0476,0.0533,0.004,,,
MGESLFKGPRDYNPISSSICHLTNESDGHTTSLYGIGFGPFIITNKHLFRRNNGTLVVQSLHGVFKVKDTTTLQQHLVDGRDMIIIRMPKDFPPFPQKLKFREPQREERICLVTTNFQTKSMSSMVSDTRCTFPSGDGIFWKHWIQTKDGQCGSPLVSTRDGFIVGIHSASNFTNTNNYFTSVPKNFMELLTNQEAQQWVSGWRLNADSVLWGGHKVFMVKPEEPFQPVKEATQL [S130R],0.0628,0.0577,,0.0707,,,0.0537,,0.0523,0.0506,0.0825,,0.0559,,,0.0704,,
MGESLFKGPRDYNPISSSICHLTNESDGHTTSLYGIGFGPFIITNKHLFRRNNGTLVVQSLHGVFKVKDTTTLQQHLVDGRDMIIIRMPKDFPPFPQKLKFREPQREERICLVTTNFQTKSMSSMVSDTSCTFPSGDGIFWKHGIQTKDGQCGSPLVSTRDGFIVGIHSASNFTNTNNYFTSVPKNFMELLTNQEAQQWVSGWRLNADSVLWGGHKVFMVKPEEPFQPVKEATQL [W144G],0.0613,0.0631,,0.0637,0.077,0.0564,0.0672,0.0519,0.0556,0.0722,0.0839,,0.0776,0.0695,0.0635,,0.0781,0.0677
MGESLFKGPRDYNPISSSICHLTNESDGHTTSLYGIGFGPFIITNKHLFRRNNGTLVVQSLHGVFKVKDTTTLQQHLVDGRDMIIIRMPKDFPPFPQKLKFREPQREERICLVTTNFQTKSMSSMVSDTSCTFPSGDGIFWKHAIQTKDGQCGSPLVSTRDGFIVGIHSASNFTNTNNYFTSVPKNFMELLTNQEAQQWVSGWRLNADSVLWGGHKVFMVKPEEPFQPVKEATQL [W144A],0.0869,0.0599,0.0678,,0.0635,0.0677,0.0723,0.048,0.0592,,,0.0905,0.0613,0.0335,,,0.0903,0.0728
